Experimental data published in the RNAGym collection of RNA variant scans (doi:10.7554/elife.90254).
The source gives no read counts; variants with many changes may rest on few reads.

B1: LINE1-full (parent)
chain: UACGUAGGUGGUUUUCCCCUGAUAGUGCUAAGGGGGCCUGGAAGUUUGGACUGGGCAGAGCUCAACACAGCGUGGCAAAGUGGCUGUGGCUAGACUGCCUCUCUGGAUUCCUCGUCACUCAGCAGGGCAUCUCUGAGAGAAAUGCC

Variants of: B1
Assay: self-cleavage, relative activity (ratio to wild type); higher = more cleavage; in vitro, sequencing; the parent is a self-cleaving ribozyme

Row | Variant | self-cleavage
1 | U23C U46A U81A | 2.17
2 | A57G U73A U100C U119C | 2.83
3 | U108G G114A U143C | 0.92
4 | U29C U52A U85C A124G | 0.15
5 | U62A U112C C131G | 0.04
6 | U46A U62A A124G A136G | 0.06
7 | U104A U115C U134A | 2.9
8 | U12G A24G C56U U102C A117G | 0.46
9 | U15C U20A G35A C51U A59G U62C A124G | 0.13
10 | G48U U109C U134C | 1.32
11 | U13C U87C U112C | 0.57
12 | U12G G55U U62A | 0.05
13 | A59G A140G A141G | 0.03
14 | U9A U39C G41A U130C | 2.07
15 | U87C U91C A140G | 0.19
16 | U20A A64U U115C A124G | 0.32
17 | U14C A64G U104A | 0.31
18 | G32A U81A U85C A92G | 1.02
19 | U20C A65G U134C | 0.16
20 | G53A C84U U104C | 0.1
21 | U15C U29C U91C A129C | 0
22 | A43G A57U C71G A136U | 0.09
23 | A59G U81C C99U | 0.09
24 | U9C G127U U134A | 2.26

Row | Variant | self-cleavage
25 | A50U U96G C113U | 0.06
26 | G35A U45A G70U U87A | 0.01
27 | U13C A31G A92G A94U U96A U119C | 0.66
28 | U85A A94U A141G | 0.09
29 | U12C U20A G35A G86U U87C | 0.07
30 | U15A A30U U115A | 1.31
31 | A6C U96A A121U | 0.26
32 | G33U U47C A94G U104C | 1.1
33 | U1C A59U U62A C120A | 0.02
34 | U9A A24G C111U G126A U132C A141G | 1.01
35 | A42G U47G C84U | 0.08
36 | G54U A57G G88U U96C | 0.03
37 | U47A U73A A77U A107G A136G | 2.15
38 | A2G U73C U85C U96C C128U | 0
39 | U23C A57G A138G | 1.53
40 | U5C G8U U9A U130C | 1.01
41 | A77G U81C U112C | 1.84
42 | U23C A30G A57C A141G | 0
43 | U81C U130C U132C | 0
44 | U12C U26C U143C | 1.2
45 | U81C A121C A129G | 0
46 | U20A A57U U104C | 0.27
47 | U14C G32A U85A U115C G125U | 0.1
48 | C3U A69G U119C | 0.46

Row | Variant | self-cleavage
49 | U9C U13C G33A A42U C101U | 1.35
50 | A42G A57U C71A U112C | 0.05
51 | C3U U109C U143C | 1.41
52 | U26A U47C A77U | 1.54
53 | U100C G125A A140G | 2.21
54 | G34A A50G G54A G106U | 0.07
55 | A6G U13C U39A A57U | 0.64
56 | U108C U112C A129G | 1.15
57 | C3U G74A U108C | 0.82
58 | A43G U130C U143C | 1.36
59 | U13C A65G U73A | 0.05
60 | G27A G33A A42G U96A | 0.03
61 | A92G A117U U130A A138G | 0
62 | G41C A78G U91A U100C | 0.64
63 | U5A G48U A138G | 0.51
64 | U29C A31G A50U A77U | 0.84
65 | A67C G74U U134C | 0.03
66 | G41A C61U U96C | 0.05
67 | U46A C61U A141G | 0.04
68 | U12C A92C U112A | 0.13
69 | C3A U115C A124U A142C | 1.31
70 | A42U A43G U52A U73C U85C U104A A140G | 0.54
71 | G4A A69G U115A | 0.5
72 | U15C U85A A92U U102C A121G C131U | 0.05

Row | Variant | self-cleavage
73 | A42G A43U U52C | 1.31
74 | A50U A94G A129U | 0.19
75 | U13C A50U A129G A140U | 1
76 | U14C U46C C63U A64G A124G | 0
77 | G33U A64G A69G | 0.07
78 | G53A A92U A124G | 0.28
79 | U9C U20C U85C U109C A140U | 0
80 | A77G A79G U96A C113U | 0.1
81 | A77G A129U U134C | 0.88
82 | U9A U13C A22G | 0.62
83 | A24G G32A U39C U52G A129G A136G | 0.84
84 | G36U A50G A67G | 0.19
85 | A43G U85A U134C A141G | 0.1
86 | G54A U87C A121U A142G | 0.08
87 | U15C A24G G35C U100C | 0.46
88 | C63U A124G A141G | 0.33
89 | C3U U47C A69U | 0.36
90 | C37U A67G U81A | 0.39
91 | U26C G33A A59G U73A G83C A141G | 0.06
92 | A59U C116U U132C C146A | 1.15
93 | U52A U85G A121G | 0.24
94 | U73C A78G A141G | 0.47
95 | G93C A117G C131A | 0.04
96 | U26A U119A A121G U132C | 1.76

Row | Variant | self-cleavage
97 | A2G U13C U81A U100C G106A | 1.95
98 | U46C U62C U85C | 0
99 | U15C U130A C145G | 2.17
100 | A22G A69U G93A A141G | 0.07
101 | U29C A30U U104C U115C | 1.84
102 | G33A U52A C71U A77C U85A | 0.02
103 | U14C C18A U20C A69U A124G | 0.38
104 | U14A A24G A59U A121U A142G | 0.93
105 | U9A A43G U47A U115C | 2.51
106 | U12C U13C U15A U23C U100C | 0
107 | A31U U39A A107U | 0.79
108 | U14A U20C U23C G36A G70U C113U A124G | 0.09
109 | G55A A64G A78U U85C A140G | 0.01
110 | U15C U46C A69G | 0.26
111 | U15A A78G A140G | 1.09
112 | A42G U104A U109C A142G | 1.46
113 | U26G A50G U102A | 0.63
114 | G25A U29C U85C | 0.14
115 | A6U G70A U115C A142G | 0.06
116 | A6G U100C U119C | 0.46
117 | A94U G97A C145G | 0.02
118 | A59G U119A A140C | 0.15
119 | A42G A50G A79U U85C | 0.59
120 | U14C A79G A92U | 0.56

Row | Variant | self-cleavage
121 | A129U A141G A142U | 1.93
122 | U46C A78G A117U A121G | 2.36
123 | U26A A129G U132A | 1.17
124 | U46C U47G U100C A129U | 1.84
125 | U15C U130A U143C | 1.23
126 | C3U U12G A138G | 0.6
127 | U26C A31G U102A | 0.97
128 | U26C C95U U134C | 0.33
129 | A22G A79G U96A | 0.1
130 | U9C A22G A42G A138C | 1.31
131 | U29A U47A U87A | 0.18
132 | U26A U119A G126U | 0.99
133 | G4A U9A A107G | 1.07
134 | U15C U47C A124G | 1.68
135 | U46C U73C U112C | 1.89
136 | U13C U20C A141G C146U | 1.29
137 | A31G U46C A78G | 1.34
138 | U14C A94G A107G U108A | 0
139 | U47C A69G G80A U81A C90G A121U | 0.06
140 | A30G U45A G72U A78G | 0.94
141 | U73C C118U A138G | 2.5
142 | U14A A92G U102C U132C U143C | 0
143 | U14C G53A G60A A64G U91C | 0
144 | U39A A107G A141G | 1.69

Row | Variant | self-cleavage
145 | U12C A59G A77G | 0.2
146 | A31U U104C A142U | 1.23
147 | A59U A67G A69U U91C | 0.21
148 | A30U U73A C110U | 1.57
149 | U1C G32U U52A A129G | 1.31
150 | A107C U134C G144A | 2.86
151 | A69U U91C G105A U112C | 0.02
152 | U62C A78U A138G | 0.02
153 | U46C A77U U85G A107G U108A A138G | 0
154 | A42G U96C G114A | 0.11
155 | U14C C51A A79G U109A | 0.37
156 | A24G U47A C71U A140G | 0.45
157 | C51U A67U G126U | 0.09
158 | U29C U45C A117U A124U U134C A142G | 0.97
159 | A30G A77G U104A | 1.25
160 | A22G C37U U108C A140G | 1.44
161 | U20A U73C U85G G89A U104C | 0
162 | U20A A42G U73C U96A U132C | 0
163 | U46C C76A U102C | 1.55
164 | U14C A43G A78U A124G | 1.22
165 | A64C A77U G106U | 0.12
166 | A107G A121G A129C A136G | 2.7
167 | A24U A65C U91C | 0.32
